Data from PubChem BioAssay AID360 (National Center for Advancing Translational Sciences (NCATS), 2006).
About 550 (1.1%) of roughly 48,000 compounds were called active. Not shown: some 4% with an inconclusive outcome. Rule as the data show it: active = potency below about 15 µM; inconclusive = mostly about 16 µM to 33 µM; inactive = weaker than that. The list shows a part of the results.

target: Lysosomal acid glucosylceramidase (Homo sapiens) (UniProt P04062); assay: Glucocerebrosidase; details: purified enzyme, resorufin glucoside fluorescence (screen aimed at inhibitors), 20 min;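 also: the screen sought inhibitors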
Chain of UniProt P04062 (P04062 whole entry, looked up): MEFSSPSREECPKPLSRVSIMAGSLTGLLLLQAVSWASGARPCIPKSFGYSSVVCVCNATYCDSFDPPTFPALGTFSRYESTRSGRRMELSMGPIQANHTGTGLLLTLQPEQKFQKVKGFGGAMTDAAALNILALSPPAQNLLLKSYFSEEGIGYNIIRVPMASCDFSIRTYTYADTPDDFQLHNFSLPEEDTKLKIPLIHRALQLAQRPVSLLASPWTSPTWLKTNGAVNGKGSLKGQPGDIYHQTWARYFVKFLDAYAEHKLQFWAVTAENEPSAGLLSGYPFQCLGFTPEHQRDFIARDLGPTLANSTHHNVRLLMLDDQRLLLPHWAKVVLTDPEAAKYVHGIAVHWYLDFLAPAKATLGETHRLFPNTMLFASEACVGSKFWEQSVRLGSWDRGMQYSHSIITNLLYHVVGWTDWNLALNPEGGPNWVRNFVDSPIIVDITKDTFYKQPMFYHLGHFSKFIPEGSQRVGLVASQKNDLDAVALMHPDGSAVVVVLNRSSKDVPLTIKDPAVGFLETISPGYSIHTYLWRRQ
In short: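 Normal human glucocerebrosidase (0.2 nM final) was assayed with resorufin β-D-glucopyranoside (30 uM final) in 50mM citric acid/KH2PO4, 10mM sodium taurocholate, 0.01% tween-20, pH 5.9. Compounds were titrated; fluorescence (Ex 548, Em 600) read after 20 min at RT.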
Potency is read from the fitted curve at half-maximal effect.

Compound | Potency
COCc1nnc(NC(=O)c2ccco2)s1 | inactive: > 76.9 µM
COc1ccc(OC)c(C(c2nnnn2Cc2ccccc2)N2CCC(C(N)=O)CC2)c1 (stereo not given) | inactive: > 76.9 µM
Cc1cc(NCCCCO)n2c(nc3ccccc32)c1C#N | inactive
COC(=O)c1ccc(=O)n(-c2ccc(OC)cc2)c1 | inactive: > 76.9 µM
CCOC(=O)c1c(C)c(C(=O)NCc2cccs2)c(C)n1C | inactive: > 76.9 µM
CCCC(=O)Nc1ccc(OCC(=O)OC)cc1 | inactive: > 76.9 µM
O=C(NCc1ccco1)c1cc(-c2ccc(F)cc2)on1 | inactive: > 76.9 µM
CCOC(=O)c1ccc(NC(=O)c2cnccn2)cc1 | inactive: > 76.9 µM
Cc1ccc2nc(N3CCC(C(=O)O)CC3)nc(-c3ccccc3)c2c1 | inactive: > 76.9 µM
O=C(c1scc2c1CCCC2)N1CCOCC1 | inactive: > 76.9 µM
c1ccc(N2CCN(c3nc4cc5c(cc4s3)OCO5)CC2)cc1 | inactive: > 76.9 µM
O=C(Cn1cccc1C(=O)c1ccccc1)NCCCN1CCOCC1 | inactive: > 76.9 µM
CCc1ccc(OCC(=O)Nc2ncc3c(n2)CC(C)(C)CC3=O)cc1 | inactive: > 76.9 µM
O=C(c1cnn2c(C(F)(F)F)cc(-c3ccco3)nc12)N1CCc2ccccc2C1 | inactive: > 76.9 µM
Cc1noc(C)c1COC(=O)CCc1nc2ccccc2s1 | inactive: > 76.9 µM
CCOc1ccc(NC(=O)C2CCN(C(=O)NCc3ccccc3)CC2)cc1 | inactive: > 76.9 µM
CNc1cc(C)nc(-n2nc(C)cc2C)n1 | inactive: > 76.9 µM
COCC(C)NC(=O)c1ccccc1OC(C)=O (stereo not given) | inactive: > 76.9 µM
Cc1ccc2cc(CN(Cc3cccs3)Cc3nnnn3CC3CCCO3)c(=O)[nH]c2c1 (stereo not given) | inactive: > 76.9 µM
O=C(CN1CCOCC1)n1c2ccccc2c2ccccc21 | inactive: > 76.9 µM
Cc1cccc(Cn2c(NCC(C)O)nc3c2c(=O)n(C)c(=O)n3C)c1 (stereo not given) | inactive: > 76.9 µM
c1ccc(C2CC(c3ccccc3)n3ncnc3N2)cc1 (stereo not given) | inactive: > 76.9 µM
COCC(=O)N(Cc1nc2ccccc2c(=O)[nH]1)Cc1cccs1 | inactive: > 76.9 µM
CC(C)C[C@H](NC(=O)NCCc1ccc(Cl)cc1)C(=O)O | inactive: > 76.9 µM

Compound | Potency
c1ccc(N2CCN(CCc3nnc4n3CCCCC4)CC2)cc1 | inactive: > 76.9 µM
CCOC(=O)c1cccc(NC(=O)CCc2nc(-c3ccc(C)cc3)no2)c1 | inactive: > 76.9 µM
COc1ccc(-c2nnn(CC(=O)OC3CCCCC3)n2)cc1OC | inactive: > 76.9 µM
CCCCn1c(SCC(N)=O)nnc1-c1ccco1 | inactive: > 76.9 µM
COC(=O)Cn1cc(C(=O)c2cccs2)c2ccccc21 | inactive: > 76.9 µM
Cc1onc(COc2ccccc2O)c1Br | inactive: > 76.9 µM
COc1ccc(CN/C(C)=C(/C#N)C(N)=O)cc1OC | inactive: > 76.9 µM
O=C(Nc1cccc(Cl)c1)Nc1ccc2c(c1)OCO2 | inactive: > 76.9 µM
OC1(c2ccc(F)cc2)CCN(Cc2ccccc2)C1 (stereo not given) | inactive: > 76.9 µM
Cn1c(N)c(C(=O)NCc2ccccc2Cl)sc1=S | inactive: > 76.9 µM
Cc1c(NC(=O)C(C)OC(=O)CC2Sc3ccccc3NC2=O)c(=O)n(-c2ccccc2)n1C (stereo not given) | inactive: > 76.9 µM
COC(=O)c1cc(S(=O)(=O)N2CCOCC2)ccc1Sc1ccccc1N | inactive: > 76.9 µM
O=C(CSc1nnc(-c2ccco2)n1CC1CCCO1)c1ccc(F)cc1 (stereo not given) | inactive: > 76.9 µM
Cc1ccc(S(=O)(=O)NC(=O)c2cc(C)n(CCCN3CCOCC3)c2C)cc1 | inactive
CC(C)c1ccc(Nc2nc(NCc3ccco3)nc(N3CCOCC3)n2)cc1 | inactive
CN1/C(=C/C(=O)C2CCC2)Sc2ccccc21 | inactive: > 76.9 µM
O=C(OCC#CCSc1nnc(-c2ccc(Br)cc2)o1)c1ccco1 | inactive: > 76.9 µM
CCCCN(CCCC)CCCNC(=O)CC1Oc2ccc(C)cc2NC1=O (stereo not given) | inactive: > 76.9 µM
CCN(CC)c1ccc(-n2cc3c(=O)n(C)c(=O)n(C)c3c2)cc1 | inactive: > 76.9 µM
O=C1C(Cl)=C(NCC2CCCO2)C(=O)N1CCc1ccccc1 (stereo not given) | inactive: > 76.9 µM
CC(=O)c1cc(-c2ccccc2)n(CC(=O)NCc2cccs2)c1C | inactive: > 76.9 µM
CCN1C(=O)CC(N2CCN(c3ccc(C(=O)c4ccccc4)cc3)CC2)C1=O (stereo not given) | inactive: > 76.9 µM
CCCOC(=O)Nc1nc2ccccc2o1 | inactive: > 76.9 µM
COc1ccc(S(=O)(=O)NCc2ccco2)cc1-c1nnc2c3ccccc3c(C)nn12 | inactive: > 76.9 µM

Compound | Potency
Cc1cc(C)nc(Nc2n[nH]c(Cc3ccccc3)n2)n1 | inactive: > 76.9 µM
Cc1cc(N2CCc3ccccc32)n2ncnc2n1 | inactive: > 76.9 µM
CCOC(=O)Nc1cc(OC)c(OC)cc1Cc1nccc2cc(OC)c(OC)cc12 | inactive: > 76.9 µM
COCCNC(=O)CN(C(=O)CCC(=O)Nc1cc(C)on1)c1ccccc1C | inactive: > 76.9 µM
O=C(Nc1cccc2ccccc12)OC1C=CS(=O)(=O)C1 (stereo not given) | inactive: > 76.9 µM
Cc1csc(-c2cnn(-c3ccccc3)c2NC(=O)c2ccccc2)n1 | inactive: > 76.9 µM
CCCCOc1ccc(S(N)(=O)=O)cc1 | inactive: > 76.9 µM
CCOC(=O)CC1=C(C(=O)OCC)C(c2ccc(C)o2)C(C#N)=C(N)O1 (stereo not given) | inactive: > 76.9 µM
COC(=O)Nc1ccc(OC)c(OC)c1 | inactive: > 76.9 µM
CCOCCCNC(=O)c1ccccc1SCC | inactive: > 76.9 µM
Cc1nnc(SCC(=O)NCc2cccs2)[nH]c1=O | inactive: > 76.9 µM
CCN(CC(=O)NCc1cccs1)c1nnnn1-c1ccccc1 | inactive: > 76.9 µM
O=C(NCCC1=CCCCC1)C1CCCN(S(=O)(=O)c2ccccc2)C1 (stereo not given) | inactive: > 76.9 µM
CCOc1ccccc1N(CC(=O)NC(C)(C)C)C(=O)Cn1nnc(-c2ccc(C)o2)n1 | inactive: > 76.9 µM
COC(=O)CN(c1ccccc1OC)S(=O)(=O)c1ccccc1 | inactive: > 76.9 µM
Cn1c(=O)oc2cc(S(=O)(=O)NCCC(=O)NC3CCCc4ccccc43)ccc21 (stereo not given) | inactive: > 76.9 µM
Cn1c(SCc2c(F)cccc2Cl)nnc1-c1cnccn1 | inactive: > 76.9 µM
CCCOC(=O)CSc1nnc(-c2ccccc2Cl)o1 | inactive: > 76.9 µM
COC(=O)c1cc2ccsc2n1CC(=O)NCC1CCCO1 (stereo not given) | inactive
COc1ccc(C)cc1S(=O)(=O)N(CC(=O)N1CCCC1)c1ccccc1 | inactive: > 76.9 µM
COC(=O)c1ccccc1NC(=O)C1CCN(S(=O)(=O)c2cc(OC)ccc2OC)CC1 | inactive: > 76.9 µM
CCN(CC)C(=O)Cn1c(=O)n(Cc2ccccc2Cl)c2c1c(=O)n(C)c(=O)n2C | inactive: > 76.9 µM
COc1ccc(S(=O)(=O)N2CCCC(C(=O)NCCC3=CCCCC3)C2)cc1 (stereo not given) | inactive: > 76.9 µM
C=CCn1c(NC(=O)c2ccccc2)c(C#N)c2nc3ccccc3nc21 | inactive: > 76.9 µM

Compound | Potency
COc1ccc(OC)c(N2Cc3cc(C)c(C)cc3C2)c1 | inactive: > 76.9 µM
Cc1ccccc1-n1c(SCc2c(C)noc2C)nnc1-c1ccncc1 | inactive: > 76.9 µM
CCOC(=O)c1sc(N)c(C(=O)OCC)c1COC(=O)C1CC(=O)N(Cc2ccco2)C1 (stereo not given) | inactive: > 76.9 µM
Nn1cc(-c2ccccc2)nc1SCC(=O)NCCN1C(=O)CSC1=O | inactive: > 76.9 µM
C1CCN=C(Nc2nc3c(s2)CCCC3)CC1 | inactive: > 76.9 µM
CC(=O)N(Cc1cc(=O)[nH]c2ccccc12)c1ccc(C)cc1 | inactive: > 76.9 µM
CC(C)CCn1nnnc1C(c1ccc(N(C)C)cc1)N1CCN(C(=O)c2ccco2)CC1 (stereo not given) | inactive: > 76.9 µM
Cc1ccc2c(c1)CCCN2C(=O)c1cccs1 | inactive: > 76.9 µM
Cc1cc(NC(=O)c2ccc(N(C)S(=O)(=O)c3ccccc3)cc2)no1 | active: 15.4 µM
CCOc1ccc(NC(=O)CSc2nc3ccccc3c(=O)n2CCNC(C)=O)cc1 | inactive: > 76.9 µM
CCCCC(=O)N1CCCC(c2nc3c(nnn3Cc3cc(C)ccc3C)c(=O)[nH]2)C1 (stereo not given) | inactive
COc1ccc(CC(=O)Nc2ccc(S(=O)(=O)NCC3CCCO3)cc2)cc1 (stereo not given) | inactive: > 76.9 µM
COCCCn1c(SCC(=O)NC(C)C)nnc1-c1ccccc1 | inactive: > 76.9 µM
Cc1sc2nc(SCC(=O)c3cccs3)n(Cc3ccco3)c(=O)c2c1C | inactive
CC(C)Oc1c(Cl)cc(CNC(C)(C)CO)cc1Cl | inactive: > 76.9 µM
Cc1cccc2cc(COC(=O)C3CCCO3)c(=O)[nH]c12 (stereo not given) | inactive: > 76.9 µM
O=C(Nc1c(F)cc(F)cc1Br)C1CCCO1 (stereo not given) | inactive: > 76.9 µM
CC(C)C[C@@H]1NC(=O)N(CCN2CCOCC2)C1=O | inactive: > 76.9 µM
O=S1(=O)CC(N2CCOCC2)c2ccccc21 (stereo not given) | inactive: > 76.9 µM
COc1cccc(-c2nn(C)c3sc(C(=O)NCc4ccco4)cc23)c1 | inactive: > 76.9 µM
O=c1oc2cc(OCc3nn[nH]n3)ccc2c2c1CCCC2 | inactive: > 76.9 µM
COC(=O)Nc1ccccc1C(=O)N1CCCCC1 | inactive: > 76.9 µM
COc1ccccc1-n1cc(C(=O)NCC(=O)N2CCN(c3ccccc3)CC2)c2ccccc2c1=O | inactive: > 76.9 µM
